# The source gives no read counts; variants with many changes may rest on few reads.
# B1: CPEB3 Ribozyme (parent)
# chain: UAACAGGGGGCCACAGCAGAAGCGUUCACGUCGCAGCCCCUGUCAGAUUCUGGUGAAUCUGCGAAUUCUGCUGUAUAUCUC
# Variants of: B1
# Assay: self-cleavage, relative activity (ratio to wild type); higher = more cleavage; in vitro, sequencing
# Summary of the method: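 For each CPEB3 ribozyme variant, relative activity is its cleaved/total read fraction divided by the unmutated ribozyme's. Barcoded error-prone PCR libraries were transcribed by T7 RNA polymerase (5 hours, 37°C) and held in DNase I for 15 min before an EDTA stop, with cleavage occurring throughout. Template-switching reverse transcription and Illumina sequencing were used to read the RNAs. A 5-read minimum applied, and results are the mean of three batches.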
row,Variant,self-cleavage
1,U31C C39U A45G C62U U80C,0.09
2,G33A U43C U80C,0.45
3,C32U U41C U78A,0.13
4,A35G U60A U74C,1.26
5,A35C U54A U66C U72C,0.4
6,U31C C34U A57G U67C,0.05
7,A35G U43A A45U U76C,1.27
8,A35G U48C U60C U80G,0.3
9,A35G U41A A57U C71U,0.11
10,U31G U41C G61A A77U,0.17
11,C32A A47U C50U U51G U67C U78C,0.02
12,A35G U41C U69C U72A,0.53
13,G33A A47G U69A U80C,0.12
14,C34U A35G G42A U66C,0.33
15,C32A U43A U69A U74C A75G,0.11
16,A35G U43C A64U,0.2
17,A35G U60C U72G,0.92
18,G33C U41C U78C,0.42
19,C34U U51A A65G U72A,0.35
20,A35G A45G G55A A64G U67A U80C,0.57
21,A35G A56G A77U,1.35
22,G33A U43A U60C,0.52
23,A35G U51C A65U U72G,0.99
24,A35C A45U C59A A64U U78A U80A,0.04

row,Variant,self-cleavage
1,A35C U48C A64G,0.19
2,C32G U48C U54C G73A,0.21
3,G33A C38U A56U A64G,0.16
4,C34A G46U U58C,0.1
5,G33U U54C U78C,0.15
6,C34G C40A U69A,0.17
7,G33A A56U U69A,0.09
8,A35G C39G U76C A77C,0.6
9,C32U C34U A35G U78C,0.15
10,A35G U41A U66A U72C U80C,0.09
11,U31G A45G U66C,0.18
12,A35C C37U A56G A57G,0.15
13,G33U U54G U60G U69C U76C,0.08
14,G33A A56G U66C,0.15
15,U31C C38A U72C,0.4
16,U31C U49C A57C,0.12
17,G33U U49A A65G,0.38
18,C34A U43C A56U,0.19
19,A35G A65G U69C,0.71
20,G33U C39U U41C U58C,0.2
21,G33A A45G A64G,0.27
22,A35G G36C G55U U67C A77U U78G,0.07
23,G33U A65G U69A,0.17
24,A35G A47G C59U,1.19

row,Variant,self-cleavage
1,C32U U51A U54C U67G U74C A75G,0.07
2,A35G U43A C44A U76C A77G,1.73
3,C34U U69C U72A,0.36
4,C34G A45G U76A U80A,0.15
5,A35G U41C A47U A65G U72C,0.32
6,A35G U51A U69C,1.46
7,A35G A47U U60A U78C,0.74
8,U31C G33A U43A,0.59
9,C32U A45G U51C U66C U67A,0.13
10,C32U A47U U67A U72C,0.22
11,A35G U41A A56G U60G,0.09
12,U31G U43C A57G,0.21
13,A35G U41A U48C,0.2
14,U31C C39A A57G U74C,0.33
15,C32U C37U A56G,0.14
16,C34U U72A U80A,0.51
17,U31C U48C U54A,0.47
18,U31C U43C U80C,0.53
19,G33A A35G U60C U80C,0.22
20,C32U A45G U72A,0.09
21,C32G U43C U54G U78C,0.19
22,C32G A56G A57G U76A,0.26
23,U31C U43A G46A,0.26
24,A35G A47U U78C,1.23

row,Variant,self-cleavage
1,C34U A45G A57G U69C U80C,0.19
2,A35G C39U U41C,1.18
3,U31C U54G A56U U74C,0.45
4,A35G U41C U51C,1.2
5,U31C U51C U54C A77U,0.77
6,U31C C34G G42A A56U U69A,0.17
7,G33A A64G A65G A77G U78A,0.1
8,A35G U49A G70A,0.76
9,A35C U49G A56U U72G,0.77
10,A35G U41C U72A U78C,1.23
11,G33A A56G U78C,0.1
12,C34G A56U U74C,0.19
13,G33A A64G U74A,0.18
14,G33U U51A U76C C81U,0.07
15,C32A G52A A64G,0.17
16,A35G U43C G52A A57U,0.71
17,C34U U60C U78A,0.06
18,U31C U43C U69C,0.32
19,U31C U41G A75U,0.39
20,G33U A47G U66C,0.08
21,U31C U41C A45C,0.19
22,U31G U49A U54C U60C,0.14
23,U31C C40A A56U A64U U76C U80C,0.1
24,U31C G52A U78C,0.94

row,Variant,self-cleavage
1,U31C C39A U51C C71G U80C,0.08
2,C32A A64G U67C,0.1
3,G33A A35G G46U,0.17
4,A35G G53A A75G U80C,1.31
5,U31C U51A U54C U80A,1.08
6,A35G A56G U67A,1.05
7,A35G U49C A77U,1.01
8,U31C G33A U48C,0.11
9,A35G U41C U66G U80C,1.2
10,U31C C38U A57U A64G,0.07
11,A35G C44U U48A U80C,0.39
12,G33U U49C U60C,0.18
13,U31C G33A C37U,0.11
14,U31C G36C G53A A65U U80C,0.18
15,G33A U54C A64G,0.06
16,C32U A35U A47U,0.09
17,G33A C62A U72A,0.07
18,G33A A56U U60C,0.05
19,C32U A57G A77G,0.14
20,A35G U43C U54C U60G U67C U78C,0.14
21,A35G U41C A57G U69C,1.22
22,A35G C39U A65G C71A,0.44
23,U31C G33A A35G C40U A57G U80A,0.1
24,G33A U43C U72C,0.08

row,Variant,self-cleavage
1,A35G U51A A65U U67A U76A,0.91
2,U31C G33A G36C A57G A64G C68U,0.07
3,A35G G46C A56G,0.38
4,A35G U58A U74C,1.1
5,U31C C40A C59A G70A U76A,0.09
6,A35G C40U A47G U51A,1.3
7,U31C U72A U78C C81U,0.87
8,U31C U69C U72C,0.22
9,C34G U60C U69A,0.11
10,A35G G42U U58A,0.13
11,C32U U41A A56G,0.17
12,A35G U54C A56U U67C G70C U72C,0.51
13,G33A A45G U54C,0.2
14,U31C U41A A64G U80A,0.07
15,A35C U48C A75U,0.59
16,C32U U41C U72G,0.12
17,A35G A57G A64G U67C,0.55
18,G33A C39U A45U U54C U72C,0.2
19,U31C U49C A57U U58C U67C,0.1
20,G33A U51C U69C,0.12
21,U31C U51A G61C,0.32
22,U31C C40U A45U U48A U72C U78A,0.11
23,C32A U43C A45U U54C U78C,0.32
24,C32U U49C C62U G63C U72A U80A,0.05

row,Variant,self-cleavage
1,G33U U60C G61A U74A,0.13
2,A35G U43C U48C G52U A56G,0.93
3,A35G C38A U43C U51A U54G U78A,0.93
4,C32U U69C G73A,0.22
5,U31C C32A A65G U74C,0.09
6,A35G U51A C62U,0.3
7,A35G U41G G73A,0.33
8,A35G A56U U72C U74A,0.8
9,U31G C38A A56G U80A,0.08
10,U31C C40A U41A A75U,0.38
11,C34A U41C A47G A64U U66C,0.08
12,C32U A35U U72A,0.09
13,U31C U43C U66G,0.09
14,A35C A45G A57G A65G U72C,0.27
15,G33C A35U U41A G70A,0.07
16,A35G C59U A77U U80A,1.3
17,A35G U41A U48C C62U G70U U80G,0.06
18,G33A U66A A77G U78C,0.06
19,C34U U49C U78G,0.12
20,A35G A47G G53U A57U,1.04
21,C32A U43A A45G A64G U69C U78C,0.15
22,A35G U41A A57G U58C,0.09
23,U31C C40U A47G A56G U60C A77G U80C,0.04
